Assay results from the RNAGym collection of RNA variant scans (doi:10.1093/nar/gkz1192).
The source gives no read counts; variants with many changes may rest on few reads.

B1: CPEB3 Ribozyme (parent)
chain: UAACAGGGGGCCACAGCAGAAGCGUUCACGUCGCAGCCCCUGUCAGAUUCUGGUGAAUCUGCGAAUUCUGCUGUAUAUCUC

Variants of: B1
Assay: self-cleavage, relative activity (ratio to wild type); higher = more cleavage; in vitro, sequencing
Summary of the method: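 Relative activity was defined as the cleaved/total read fraction for a variant divided by the same fraction for the unmutated ribozyme. CPEB3 self-cleaving ribozyme libraries were made by rounds of error-prone PCR, barcoded, and transcribed in vitro with T7 RNA polymerase for 5 hours at 37°C, and cleavage ran through transcription plus a 15 min DNase I step before EDTA. Illumina sequencing of template-switched reverse transcripts gave the reads, and DNA sequencing mapped the barcodes. Averages come from three batches, using variants with at least 5 reads.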

Row | Variant | self-cleavage
1 | UACCAAGGGGCCACAGCAGAAGCGUUCACGUCGCAGCCCCUGUCAGAUCCUGGUGAAACUGCGAAUUCUGCAGUAUAUCUC [A3C G6A U49C U58A U72A] | 0.07
2 | UACCAGAGGGCCACAGCAGAAGCGUUCACGCUGCAGCCCCUGUCAGAUUCUGGUGAAUCUGCGAAUUCUGCUGUAUAUCAC [A3C G7A U31C C32U U80A] | 0.08
3 | UACCAGAGGGCCACAGCAGAAGCGUUCACGUCGCAGCCCCUGCCAGAUUCUGGUGAAUCUGCGAAUUCUGCUGUAUAUCUC [A3C G7A U43C] | 0.08
4 | UACCAGUGGGCCUCAGCAGAAGCGUUCACGUCGCAGCCCCUGCCAGAUUCUGGUGAAUCUGCGAAUUCUGCUGUAUAUCUC [A3C G7U A13U U43C] | 0.38
5 | UACCAGGUGGCCACAGCAGAAGCAUUCACGUCGCAGCCCCUGUCAGAUUCUGGUGACUCUCCGAAUUCUGCUGUAUAUCUC [A3C G8U G24A A57C G61C] | 0.06
6 | UACCAGGGCGCCACAGCAGAAGCGUUCACGUCGCAGCCCCUGUCAGAUUCUGGUGAAUCUCCGAAUUCUGCUGUAUACCUC [A3C G9C G61C U78C] | 0.14
7 | UACCAGGGGGCCACAACAGAAGCGUUCGCGUCGCAGCCCCUGUCAGAUUCUGGUGAAUCUGCGAAUUCUGCUGUAUAUCUC [A3C G16A A28G] | 0.44
8 | UACCAGGGGGCCACAGCAAAAGCGUCCACGUCGCAGCCCCUGUCAGAUUCUGGUGAAUCUGCGAAUUCUGCUGUAUAUCUC [A3C G19A U26C] | 0.63
9 | UACCAGGGGGCCACAGCAGAAGCGCUCACGUCGCGGCCCCCGUCAGAUUCCGGUGAAUCUGCGAAUUCUGCUGUAUAUCUC [A3C U25C A35G U41C U51C] | 0.2
10 | UACCAGGGGGCCACAGCAGAAGCGUACACGUCGCAGCCCCUGUCAGAUUCUGGUGAAUCGGCGUAUUCUGCUGUAUAUCUC [A3C U26A U60G A64U] | 0.4
11 | UACCAGGGGGCCACAGCAGAAGCGUUCACGUCGCAGCCCCCGUUAGGUUCUGGUGAAUCUGAGGAUUCUGCUGUAUAUCUC [A3C U41C C44U A47G C62A A64G] | 0.1
12 | UACCAGGGGGCCACAGCAGAAGCGUUCACGUCGCAGCCCCUGACAGAUUCUGGUGAAUCUGCGAAUUCUGCUGUAUGUCUC [A3C U43A A77G] | 1.22
13 | UACCAGGGGGCCACAGCAGAAGCGUUCACGUCGCAGCCCCUGCCAGAUUCUGGUGGAUCUGUGAAUUCUGCUGUAUAUCUC [A3C U43C A56G C62U] | 0.39
14 | UAGCCGGGGGCCACAGCGGAAGCAUUCACGUCGCAGCCCCUGUCAGAUUCUGGUGAAUCUGCGGAUUCUGCUGUAUAUCUC [A3G A5C A18G G24A A64G] | 0.11
15 | UAGCCGGGGGCCACAGCAGAAGCGUUCACGUCGCAGUCCCCGUCAGAUUCUGGUGAAUCUGCGACUACUGCUGUGUAUCUC [A3G A5C C37U U41C A65C U67A A75G] | 0.11
16 | UAGCGGGGGGCCGCAGCAGAAGCGUUCACGUCGCAGCCCCUGUCAUAUUCUGGUGAAUCUGCGAAUUCUGCUGUAUAUCUC [A3G A5G A13G G46U] | 0.1
17 | UAGCGGGGGGCCACAGCUGAAGCGAUCACGUCGCAGCCCCUGUCAGAUUCUGGUGAAUCUGCGAAUUCUGCGGUAUAUCUC [A3G A5G A18U U25A U72G] | 0.07

Row | Variant | self-cleavage
18 | UAGCGGGGGGCCACAGCAGAAGCGUUCACGUCGCCGCCCCUGUCAGAUUCUGGUGAAUCUGCGAAUCCCGCUGUAUAUCUC [A3G A5G A35C U67C U69C] | 0.46
19 | UAGCGGGGGGCCACAGCAGAAGCGUUCACGUCGCAGUCCCUGUCAGAUUCUGGCGAAUCUGCGAAUUCUGCUGUAUAUCUC [A3G A5G C37U U54C] | 0.51
20 | UAGCGGGGGGCCACAGCAGAAGCGUUCACGUCGCAGCCCCUGUUAGAUUCUGGUGAAUCUGCGAAUUCUGCUGUAUAUCUC [A3G A5G C44U] | 0.49
21 | UAGCGGGAGGCCACAGCAGAAGCGUUCACGUCGCAGCCCCUGUCAGAUUCUGGUGAGUCUGCGAAUUCUGCUGUAUAUCUC [A3G A5G G8A A57G] | 0.67
22 | UAGCGGGGAGCCUCAGCGGAAGCGUUCACGUCGCAGCCCCUGUCAGAUUCUGGUGAAUCUGCGAAUUCUGCUGUAUAUCUC [A3G A5G G9A A13U A18G] | 0.69
23 | UAGCGGGGGGCCACAGCAGAAGCGUUCACAUCGCAGCCCCUGUCAGAUUCUGGUGAAUCUGCGAAUUCCGCUGUAUAUCUC [A3G A5G G30A U69C] | 0.4
24 | UAGCGGGGGGCCACAGCAGAAGCGUUCACGUCGCAGCCCCUGUCAUAUUCUGGUGAAUCUGCGAAUUCAGCUGUAUAUCUC [A3G A5G G46U U69A] | 0.29
25 | UAGCGGGGGGCCACAGCAGAAGCGCUCACGACGCAGCCCCCGUCAGAUCCUGGUGAAUCUGCGAAUUCUGCAGUAUAUCUC [A3G A5G U25C U31A U41C U49C U72A] | 0.25
26 | UAGCGGGGGGCCACAGCAGAAGCGUACACGUCGUAGCCCGUGUCAGAUUCUCGUGAAUCUGCGAAUUCUGCCGUAUAUCUC [A3G A5G U26A C34U C40G G52C U72C] | 0.1
27 | UAGCGGGGGGCCACAGCAGAAGCGUCCACGUCGCAGCCCCUGUCAGAUUCUGGUGAAUCUGCGAAUUCUGCUGUAUUUCUC [A3G A5G U26C A77U] | 0.67
28 | UAGCGGGGGGCCACAGCAGAAGCGUCCACGUCGCAGCCCCUGUCAGAUUCUGGUGAAUCUGCGAAUUCUGCUGUACAACUC [A3G A5G U26C U76C U78A] | 0.24
29 | UAGCGGGGGGCCACAGCAGAAGCGUUCACGUCGCAGCCCCCGCCAGAUUCUGGCGAAUCUGCGGAUUCUGCUGUAUAUCUC [A3G A5G U41C U43C U54C A64G] | 0
30 | UAGCGGGGGGCCACAGCAGAAGCGUUCACGUCGCAGCCCCCGUCAGAUUCUGGUGAAUCUGCGAAUUCUGCUGUAUAUCCC [A3G A5G U41C U80C] | 0.28
31 | UAGCGGGGGGCCACAGCAGAAGCGUUCACGUCGCAGCCCCUGACAGAUUCUGGUGAAUCUGCGAAUUCUGCAGUAUAUCUC [A3G A5G U43A U72A] | 0.14
32 | UAGCGGGGGGCCACAGCAGAAGCGUUCACGUCGCAGCCCCUGUCAGAUUCUGGCGGAUCUGCGAAUUCUGCCGUAUUUUUC [A3G A5G U54C A56G U72C A77U C79U] | 0.54
33 | UAGCGGGGGGCCACAGCAGAAGCGUUCACGUCGCAGCCCCUGUCAGAUUCUGGUGAAUCUGCGAAUUCUGCUGUACACCUC [A3G A5G U76C U78C] | 0.62
34 | UAGCGGGGGGCCACAGCAGAAGCGUUCACGUCGCAGCCCCUGUCAGAUUCUGGUGAAUCUGCGAAUUCUGCUGUAUAUCCC [A3G A5G U80C] | 0.62
